{"source": "PubChem BioAssay AID1768", "about": "(National Center for Advancing Translational Sciences (NCATS), 2009)", "note": "About 620 (0.23%) of roughly 270,000 compounds were called active. The inconclusive results got no clear call from the source; some entries with a clear call stand among them for comparison. Calls follow the shape of the dose curve; as a rule, active = well fitted inhibition curve with a large enough effect in the polarisation, with a control signal flat (not every such curve was filed as active); inconclusive = small, poorly fitted or top-dose-only effect, or effect the other way, or a change in a side signal; inactive = no such curve, though single readings can be large or run the other way; the % refers to the polarisation. Where the call is inconclusive, the potency comes from a doubtful curve fit. “Side channel” marks fits to a control or component signal instead of the main read-out. Potency is read from the fitted curve at half-maximal effect; tags tell the direction and shape of the fitted curve or compound fluorescence and quenching.", "data": [{"target": "Menin (Homo sapiens) (UniProt O00255)", "sequence (O00255 whole entry, looked up)": "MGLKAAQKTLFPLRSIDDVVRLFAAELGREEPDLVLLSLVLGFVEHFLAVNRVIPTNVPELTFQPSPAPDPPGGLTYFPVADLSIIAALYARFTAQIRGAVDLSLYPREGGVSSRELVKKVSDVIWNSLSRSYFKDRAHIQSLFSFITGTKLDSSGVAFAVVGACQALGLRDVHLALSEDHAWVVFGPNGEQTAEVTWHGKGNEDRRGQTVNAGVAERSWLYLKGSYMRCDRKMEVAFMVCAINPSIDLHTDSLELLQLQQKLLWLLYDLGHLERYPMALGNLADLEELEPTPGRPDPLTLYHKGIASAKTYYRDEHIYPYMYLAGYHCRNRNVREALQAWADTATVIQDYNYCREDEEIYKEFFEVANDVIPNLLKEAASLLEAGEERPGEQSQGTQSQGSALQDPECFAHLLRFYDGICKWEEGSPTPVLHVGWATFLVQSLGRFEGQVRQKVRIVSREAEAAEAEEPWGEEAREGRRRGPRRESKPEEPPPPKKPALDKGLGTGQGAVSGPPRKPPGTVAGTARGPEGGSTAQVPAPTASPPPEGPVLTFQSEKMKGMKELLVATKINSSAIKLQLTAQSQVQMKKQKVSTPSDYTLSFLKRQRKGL", "test": "qHTS Assay for Inhibitors Targeting the Menin-MLL Interaction in MLL Related Leukemias: Competition With Texas Red Labeled MLL-derived Mutant Peptide", "conditions": "fluorescence polarization; series mostly up to 61.6 µM", "values": [{"compound": "COc1ccccc1NC(=O)c1ccccc1S(=O)(=O)c1ccc([N+](=O)[O-])cc1", "Potency": "inconclusive: 10 µM [quencher, side channel, partial curve]"}, {"compound": "O=C(CCc1ccccc1)N1CCN(Cc2ccc(F)cc2Cl)CC1", "Potency": "inconclusive: 20 µM [fluorescent, side channel, single point]"}, {"compound": "Oc1c(Br)cc(Br)c(/C=N/n2c(-c3ccccc3)n[nH]c2=S)c1Br", "Potency": "inconclusive: 25.1 µM [quencher, side channel, single point]"}, {"compound": "COc1cc(OC)cc(C(=O)NC(=S)Nc2ccc3c4c(cccc24)CC3)c1", "Potency": "inconclusive: 11.2 µM [inhibitor, partial curve]"}, {"compound": "O=C(CSc1ccc(-c2ccc(Br)cc2)nn1)NC1CCCC1", "Potency": "inconclusive: 28.2 µM [inhibitor, single point]"}, {"compound": "O=C(c1c(Cl)cccc1Cl)N1CCN(c2ncccn2)CC1", "Potency": "inconclusive: 0.891 µM [fluorescent, side channel, full curve]"}, {"compound": "O=C1c2cccc3c([N+](=O)[O-])ccc(c23)C(=O)N1O", "Potency": "inconclusive: 14.1 µM [quencher, side channel, partial curve]"}, {"compound": "O=C(NCc1ccc(F)cc1Cl)C1CCN(S(=O)(=O)N2CCCCC2)CC1", "Potency": "inconclusive: 0.631 µM [inhibitor, full curve, poor fit]"}, {"compound": "CCOP(=O)(OCC)c1nc(-c2cccc([N+](=O)[O-])c2)oc1N1CCCCC1", "Potency": "inconclusive: 15.8 µM [fluorescent, side channel, partial curve]"}, {"compound": "O=C(COc1ccccc1Cl)NC(=S)Nc1cccc(NC(=O)c2ccccc2Cl)c1", "Potency": "inconclusive: 1.41 µM [quencher, side channel, full curve]"}, {"compound": "COc1ccc(-c2nc3ccncc3[nH]2)cc1OC", "Potency": "inactive"}, {"compound": "CCOc1ccc(-n2c(N)c(C(=O)NCc3ccco3)sc2=S)cc1", "Potency": "inconclusive: 39.8 µM [fluorescent, side channel, single point]"}, {"compound": "Nc1ccc2c(c1)C/C(=C/c1ccco1)C2=O", "Potency": "inconclusive: 35.5 µM [quencher, side channel, single point]"}, {"compound": "COc1ccc(OC)c(NC(=O)C2CCCCC2C(=O)O)c1", "note": "(centres undefined)", "Potency": "inconclusive: 14.1 µM [inhibitor, partial curve]"}, {"compound": "CC(=O)/C(=N/Nc1ccccc1C)N1CCOCC1", "Potency": "inactive"}, {"compound": "O=C(CNC(=O)c1ccc(Cl)cc1)OCCCOC(=O)CNC(=O)c1ccc(Cl)cc1", "Potency": "inconclusive: 39.8 µM [inhibitor, single point]"}, {"compound": "CC(/C=N/NC(=O)NC1CCCCC1)=C\\c1ccccc1", "Potency": "inconclusive: 15.8 µM [fluorescent, side channel, partial curve]"}, {"compound": "COc1ccc(OC)c(-c2nnc3n2N=C(c2ccc(OC)c(OC)c2)CS3)c1", "Potency": "inconclusive: 39.8 µM [inhibitor, single point]"}, {"compound": "O=C(Nc1cccc([N+](=O)[O-])c1)Nc1cccs1", "Potency": "inconclusive: 12.6 µM [quencher, side channel, partial curve]"}, {"compound": "Cc1cccc(Oc2ncnc3onc(C)c23)c1", "Potency": "inactive"}, {"compound": "COc1cc(C(C)=O)ccc1OCC(O)CN1CCN(c2ccc(C)c(C)c2)CC1", "note": "(centres undefined)", "Potency": "inconclusive: 39.8 µM [inhibitor, single point]"}, {"compound": "CNC(=O)Nc1nnc(C(C)(C)C)s1", "Potency": "inactive"}, {"compound": "COc1ccccc1N1CCN(CCCNC(=O)C2CCCN(c3ncnc4c3nc3n4CCCCC3)C2)CC1", "note": "(centres undefined)", "Potency": "inconclusive: 15.8 µM [inhibitor, partial curve, poor fit]"}, {"compound": "O=[N+]([O-])c1ccccc1/C=C/c1ccc2ccccc2n1", "Potency": "inconclusive: 39.8 µM [quencher, side channel, single point]"}, {"compound": "CN(C)NC1=CC(=[N+]2CCCC2)CC(C)(C)C1", "Potency": "inactive"}, {"compound": "O=C(CCCCC(=O)Nc1ccccc1Cl)Nc1ccccc1Cl", "Potency": "inconclusive: 39.8 µM [fluorescent, side channel, single point]"}, {"compound": "CC(C)c1nnc(NC(=O)C2CC(=O)N(CCc3ccc(F)cc3)C2)s1", "note": "(centres undefined)", "Potency": "inconclusive: 2.51 µM [inhibitor, full curve, poor fit]"}, {"compound": "COc1cc2ccccc2cc1C(=O)Nc1ccc(N2CCOCC2)cc1", "Potency": "inconclusive: 20 µM [quencher, side channel, partial curve]"}, {"compound": "Cc1ccc(S(=O)(=O)N2CCN(c3ccnc4cc(Cl)ccc34)CC2)cc1", "Potency": "inactive"}, {"compound": "O=C(CSCc1ccccc1)Nc1ccc(S(=O)(=O)N2CCOCC2)cc1", "Potency": "inconclusive: 31.6 µM [quencher, side channel, single point]"}, {"compound": "Fc1ccc(Cn2c(-c3cscn3)nc3ccccc32)c(Cl)c1", "Potency": "inconclusive: 28.2 µM [fluorescent, side channel, single point]"}, {"compound": "CCOC(=O)c1cc(-c2ccc(N3CCOCC3)cc2)nn1-c1ccc(F)cc1F", "Potency": "inactive"}, {"compound": "COC(=O)c1ccccc1N/C=C/C(=O)c1ccc(Br)cc1", "Potency": "inactive"}, {"compound": "CC1CCN(S(=O)(=O)c2ccc(NC(=O)Cc3cccs3)cc2)CC1", "Potency": "inconclusive: 14.1 µM [quencher, side channel, partial curve]"}, {"compound": "O=C(Nc1ccc(NC(=O)c2cccs2)cc1)c1cccnc1", "Potency": "inconclusive: 39.8 µM [fluorescent, side channel, single point]"}, {"compound": "O=C(CNc1ccc2ccccc2c1)N/N=C/C=C/c1cccc([N+](=O)[O-])c1", "Potency": "inconclusive: 8.91 µM [quencher, side channel, partial curve]"}, {"compound": "O=S(=O)(NNc1ccc(F)cc1F)c1cccc(Cl)c1", "Potency": "inconclusive: 22.4 µM [inhibitor, single point]"}, {"compound": "O=[N+]([O-])c1cc(S(=O)(=O)Nc2ccccc2)ccc1NCc1ccccc1", "Potency": "inconclusive: 35.5 µM [quencher, side channel, single point]"}, {"compound": "COc1ccc(Br)cc1/C=C/C(=O)Nc1ccc2ccccc2c1", "Potency": "inconclusive: 35.5 µM [inhibitor, single point]"}, {"compound": "COc1ccc(OC)c(NC(=O)N2CCCC(CNS(=O)(=O)c3cccs3)C2)c1", "note": "(centres undefined)", "Potency": "inconclusive: 28.2 µM [inhibitor, single point]"}, {"compound": "Cc1ccc(-c2nnn(CC(=O)Nc3cccc4cccnc34)n2)o1", "Potency": "inconclusive: 35.5 µM [quencher, side channel, single point]"}, {"compound": "C=C(C)Cn1c(C)cc(C)c(S(=O)(=O)c2cccc(C)c2)c1=O", "Potency": "inconclusive: 11.2 µM [fluorescent, side channel, partial curve]"}, {"compound": "Cc1ccc(C(c2nnnn2CC2CCCO2)N2CCN(c3cccc(C)c3C)CC2)cc1", "note": "(centres undefined)", "Potency": "inconclusive: 0.631 µM [inhibitor, full curve, poor fit]"}, {"compound": "Cc1ccc(CNc2nc(N)c([N+](=O)[O-])c(Nc3cccc(F)c3)n2)cc1", "Potency": "inconclusive: 8.91 µM [quencher, side channel, full curve, poor fit]"}, {"compound": "COc1ccc(C(C[N+](=O)[O-])c2c(-c3ccccc3)cc3ccccn23)c(OC)c1", "note": "(centres undefined)", "Potency": "inconclusive: 31.6 µM [quencher, side channel, single point]"}, {"compound": "O=C(Nc1ccc(-c2csc(-c3ccccc3)n2)cc1)c1ccccc1", "Potency": "inconclusive: 2.82 µM [quencher, side channel, full curve]"}, {"compound": "CCOc1ccc(N(CC(=O)NCCC2=CCCCC2)S(=O)(=O)c2ccccc2)cc1", "Potency": "inconclusive: 3.16 µM [fluorescent, side channel, full curve]"}, {"compound": "CCC(=O)Nc1ccc(NC(=O)c2cccc3ccccc23)cc1", "Potency": "inconclusive: 39.8 µM [fluorescent, single point]"}, {"compound": "CO/N=C(\\c1nonc1N)N1CCN(c2ccc(Cl)cc2[N+](=O)[O-])CC1", "Potency": "inconclusive: 14.1 µM [quencher, side channel, partial curve]"}, {"compound": "O=C1Cc2cc([N+](=O)[O-])ccc2N1c1c(Cl)cccc1Cl", "Potency": "inconclusive: 25.1 µM [quencher, side channel, partial curve]"}, {"compound": "O=C(CNCC1CCCO1)Nc1ccccc1N1CCCCCC1", "note": "(centres undefined)", "Potency": "inconclusive: 17.8 µM [fluorescent, side channel, single point]"}, {"compound": "Cc1cccc2sc(NC(=O)CCNS(=O)(=O)c3cccs3)nc12", "Potency": "inconclusive: 22.4 µM [quencher, side channel, single point]"}, {"compound": "O=C(O)c1ccccc1N/N=C\\c1ccnc2ccccc12", "Potency": "inconclusive: 12.6 µM [quencher, side channel, partial curve]"}, {"compound": "O=C(CSc1nnc(NC(=O)c2ccco2)s1)Nc1ccc2c(c1)OCCO2", "Potency": "inconclusive: 20 µM [inhibitor, partial curve]"}, {"compound": "COC(=O)c1ccc(C(C(=O)NC2CCCCC2)N(C(=O)Cc2cccs2)C2CC2)cc1", "note": "(centres undefined)", "Potency": "inconclusive: 35.5 µM [fluorescent, side channel, single point]"}, {"compound": "O=C(Nc1ccc(Cl)cc1)Nc1nc(-c2sccc2Br)cs1", "Potency": "inconclusive: 2.24 µM [quencher, side channel, partial curve]"}, {"compound": "CCN(CC)CCN(Cc1cc2cccc(C)c2[nH]c1=O)C(=S)Nc1ccccc1", "Potency": "inconclusive: 11.2 µM [fluorescent, side channel, partial curve]"}, {"compound": "CC(C)C(=O)Nc1ccc(S(=O)(=O)Nc2ccccn2)cc1", "Potency": "inconclusive: 39.8 µM [fluorescent, side channel, single point]"}, {"compound": "COc1ccc(NC(=S)NNc2ccc([N+](=O)[O-])cc2S(=O)(=O)Nc2ccc(C)cc2C)cc1", "Potency": "inconclusive: 10 µM [quencher, side channel, partial curve]"}]}]}
